The results in this text go back to paper PMC12820563.

This is one part of the list. The list includes weakly bound sequences.

The target in this assay is T1, MBP-FoxP3dN (UniProt Q99JB6).
T1 sequence: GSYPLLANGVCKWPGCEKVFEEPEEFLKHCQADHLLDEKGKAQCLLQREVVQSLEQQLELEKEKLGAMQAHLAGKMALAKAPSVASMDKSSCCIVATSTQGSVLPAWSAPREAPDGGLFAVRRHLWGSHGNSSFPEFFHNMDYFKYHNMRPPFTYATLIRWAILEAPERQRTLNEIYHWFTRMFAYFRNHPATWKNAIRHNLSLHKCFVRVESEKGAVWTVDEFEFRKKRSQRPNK
The assay can be described thus: PD-seq (MBP pull-down with sequencing). Conditions: 20 mM Tris-HCl pH 7.5, 100 mM NaCl, 1.5 mM MgCl2, 0.4 uM protein, 0.1 uM dsDNA library, 30 min, room temperature, amylose pull-down; high values mean tight binding; double strand, one strand shown.
In the case of “GATGATTGTTCTCCCAGCTGATGAATTGGCTGGTTCGAGTAAACAAATTTTCCTAATCTTTCTGTTCAAGCGCCATCTAC”, the binding signal (RPM ratio (pull-down/input)) is 0.647. Regarding “GATGATTGTTCTCCCAGCTGATGAATTATGTGGGTCGAGTAAACAAATTTTCCTAATCTTTCTGTTCAAGCGCCATCTAC”, the binding signal (RPM ratio (pull-down/input)) amounted to 1.31. In the case of “GATGATTGTTCTCCCAGCTGATGAATTTAGGAACTCGAGTAAACAAATTTTCCTAATCTTTCTGTTCAAGCGCCATCTAC”, the binding signal (RPM ratio (pull-down/input)) came to 0.324. Regarding “GATGATTGTTCTCCCAGCTGATGAATTCAGAAATTCGAGTAAACAAATTTTCCTAATCTTTCTGTTCAAGCGCCATCTAC”, the binding signal (RPM ratio (pull-down/input)) is 0.413. Take “GATGATTGTTCTCCCAGCTGATGAATTGCTATTGTCGAGTAAACAAATTTTCCTAATCTTTCTGTTCAAGCGCCATCTAC”: the binding signal (RPM ratio (pull-down/input)) came to 2.12.

As for “GATGATTGTTCTCCCAGCTGATGAATTTGTGGATTCGAGTAAACAAATTTTCCTAATCTTTCTGTTCAAGCGCCATCTAC”, the binding signal (RPM ratio (pull-down/input)) was found to be 3.34. In the case of “GATGATTGTTCTCCCAGCTGATGAATTTTGTCGTTCGAGTAAACAAATTTTCCTAATCTTTCTGTTCAAGCGCCATCTAC” it was 3.85; in that of “GATGATTGTTCTCCCAGCTGATGAATTAAAAGGTTCGAGTAAACAAATTTTCCTAATCTTTCTGTTCAAGCGCCATCTAC”, 0.19. In the case of “GATGATTGTTCTCCCAGCTGATGAATTATATGCCTCGAGTAAACAAATTTTCCTAATCTTTCTGTTCAAGCGCCATCTAC” it was 0.913; in that of “GATGATTGTTCTCCCAGCTGATGAATTGAAACTCTCGAGTAAACAAATTTTCCTAATCTTTCTGTTCAAGCGCCATCTAC”, 0.35; in that of “GATGATTGTTCTCCCAGCTGATGAATTGAACTGATCGAGTAAACAAATTTTCCTAATCTTTCTGTTCAAGCGCCATCTAC”, 0.275.

Consider “GATGATTGTTCTCCCAGCTGATGAATTCCCAGATTCGAGTAAACAAATTTTCCTAATCTTTCTGTTCAAGCGCCATCTAC”, for which the binding signal (RPM ratio (pull-down/input)) worked out at 0.173. Take “GATGATTGTTCTCCCAGCTGATGAATTTGTGTCGTCGAGTAAACAAATTTTCCTAATCTTTCTGTTCAAGCGCCATCTAC”: the binding signal (RPM ratio (pull-down/input)) came to 5. On to “GATGATTGTTCTCCCAGCTGATGAATTCAGATTCTCGAGTAAACAAATTTTCCTAATCTTTCTGTTCAAGCGCCATCTAC”, for which the binding signal (RPM ratio (pull-down/input)) was determined as 0.534. As to “GATGATTGTTCTCCCAGCTGATGAATTCGAGCATTCGAGTAAACAAATTTTCCTAATCTTTCTGTTCAAGCGCCATCTAC”, the binding signal (RPM ratio (pull-down/input)) was found to be 4.97. For “GATGATTGTTCTCCCAGCTGATGAATTTAACATTTCGAGTAAACAAATTTTCCTAATCTTTCTGTTCAAGCGCCATCTAC”, the binding signal (RPM ratio (pull-down/input)) came out at 0.932. Regarding “GATGATTGTTCTCCCAGCTGATGAATTAACCCTCTCGAGTAAACAAATTTTCCTAATCTTTCTGTTCAAGCGCCATCTAC”, the binding signal (RPM ratio (pull-down/input)) came out at 0.3. For the sequence “GATGATTGTTCTCCCAGCTGATGAATTCCAAACATCGAGTAAACAAATTTTCCTAATCTTTCTGTTCAAGCGCCATCTAC”, the binding signal (RPM ratio (pull-down/input)) was 1.25. In the case of “GATGATTGTTCTCCCAGCTGATGAATTCAGAGACTCGAGTAAACAAATTTTCCTAATCTTTCTGTTCAAGCGCCATCTAC” it was 0.426; in that of “GATGATTGTTCTCCCAGCTGATGAATTGTACTTTTCGAGTAAACAAATTTTCCTAATCTTTCTGTTCAAGCGCCATCTAC”, 0.551. With “GATGATTGTTCTCCCAGCTGATGAATTTCCCTGATCGAGTAAACAAATTTTCCTAATCTTTCTGTTCAAGCGCCATCTAC” the figure was 0.188.

Consider “GATGATTGTTCTCCCAGCTGATGAATTAATAGTTTCGAGTAAACAAATTTTCCTAATCTTTCTGTTCAAGCGCCATCTAC”, for which the binding signal (RPM ratio (pull-down/input)) came out at 0.67. With “GATGATTGTTCTCCCAGCTGATGAATTACTCATGTCGAGTAAACAAATTTTCCTAATCTTTCTGTTCAAGCGCCATCTAC” the figure was 0.381. As to “GATGATTGTTCTCCCAGCTGATGAATTAATAATCTCGAGTAAACAAATTTTCCTAATCTTTCTGTTCAAGCGCCATCTAC”, the binding signal (RPM ratio (pull-down/input)) was 0.428.

In the case of “GATGATTGTTCTCCCAGCTGATGAATTGCCTGGATCGAGTAAACAAATTTTCCTAATCTTTCTGTTCAAGCGCCATCTAC”, the binding signal (RPM ratio (pull-down/input)) stood at 0.449.

In the case of “GATGATTGTTCTCCCAGCTGATGAATTGCTTGGGTCGAGTAAACAAATTTTCCTAATCTTTCTGTTCAAGCGCCATCTAC”, the binding signal (RPM ratio (pull-down/input)) was 0.775. In the case of “GATGATTGTTCTCCCAGCTGATGAATTGGTTATATCGAGTAAACAAATTTTCCTAATCTTTCTGTTCAAGCGCCATCTAC” it was 0.961; in that of “GATGATTGTTCTCCCAGCTGATGAATTGATCGCGTCGAGTAAACAAATTTTCCTAATCTTTCTGTTCAAGCGCCATCTAC”, 0.539; in that of “GATGATTGTTCTCCCAGCTGATGAATTCACTATGTCGAGTAAACAAATTTTCCTAATCTTTCTGTTCAAGCGCCATCTAC”, 0.482.

For “GATGATTGTTCTCCCAGCTGATGAATTTTAGTCTTCGAGTAAACAAATTTTCCTAATCTTTCTGTTCAAGCGCCATCTAC”, the binding signal (RPM ratio (pull-down/input)) worked out at 0.359. In the case of “GATGATTGTTCTCCCAGCTGATGAATTTGCTTTGTCGAGTAAACAAATTTTCCTAATCTTTCTGTTCAAGCGCCATCTAC” it was 6.34.
